# In the supplement of paper PMC8728848:
# The list shows a part of the results.
# B1: PX9937A-bvu-521-23-521 (Bacteroides vulgatus) (protein)
# chain: LDLAPEDYYGAGNFWKEASQPKAFMLGLHAQLRSYYDMFYTLGELRGGTQRVGTSSLNTSLNYADIRSQNISEDIPGISNWNGLYSPIMQVNHFIQEVENGCTFLDDATRSRYLGQAYGMRALYYFMLYRTFGGVPLITKVDILDGKPSADKFYVERATPEATMEFIKADINKSENYFGNNTSFDAYDWSRYATLMLKAEIYMWAAKVSITGFTATGATDLQTAKTALSGIIGHFELMDNFASIFSCDNKKNTEIIFAMPFIEGEASNDGGRFLYQDAVFLGQAYGRNGKVIEKDTLNLKGTGGVFRDEYTEDFWKTFKEGDSRRDATFMEYYMKNDNGTLSEFGCVMKKRIGTINSNDNRIYISDIPVYRYADALLMMAEIENGLNNPCASYINEVRKRAYGDTFEENKYTEGSYAENELAILQERDKEFVSEGKRWFDVLRMHDASGRSLVFSANANYPGTNPILGTEEAYKMLWPVNIGTLNVNPLLTQTPGYGKK
# Legend:
# Experiment in all cases: glycan array binding signal (z-score within array); higher = stronger binding
# Details in all cases: glycan notation: IUPAC condensed, linker removed
# Fuc(a1-2)Gal = molecular target: Fuc(a1-2)Gal
# In short: (§1)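 Negative Z-scores can be read as non-binding. The Z-score is calculated within each array and then averaged across arrays of one protein sequence at different concentrations or buffers and across linkers. Arrays, 3228 in all, were curated from the Consortium for Functional Glycomics database and kept only where the protein sequence was available.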
# Fuc(a1-2)Gal(b1-3)GalNAc = molecular target: Fuc(a1-2)Gal(b1-3)GalNAc
# In short: as §1
# [1] = molecular target: Fuc(a1-2)Gal(b1-3)GalNAc(a1-3)[Fuc(a1-2)]Gal(b1-4)Glc
# In short: as §1
# [2] = molecular target: Fuc(a1-2)Gal(b1-3)GalNAc(a1-3)[Fuc(a1-2)]Gal(b1-4)GlcNAc
# In short: as §1
# [3] = molecular target: Fuc(a1-2)Gal(b1-3)GalNAc(b1-3)Gal
# In short: as §1
# [4] = molecular target: Fuc(a1-2)Gal(b1-3)GalNAc(b1-3)Gal(a1-4)Gal(b1-4)Glc
# In short: as §1
# [5] = molecular target: Fuc(a1-2)Gal(b1-3)GalNAc(b1-4)[Neu5Ac(a2-3)]Gal(b1-4)Glc
# In short: as §1
# Fuc(a1-2)Gal(b1-3)GlcNAc = molecular target: Fuc(a1-2)Gal(b1-3)GlcNAc
# In short: as §1
# [6] = molecular target: Fuc(a1-2)Gal(b1-3)GlcNAc(b1-2)Man(a1-3)[Fuc(a1-2)Gal(b1-3)GlcNAc(b1-2)Man(a1-6)]Man(b1-4)GlcNAc(b1-4)GlcNAc
# In short: as §1
# [7] = molecular target: Fuc(a1-2)Gal(b1-3)GlcNAc(b1-2)Man(a1-3)[Fuc(a1-2)Gal(b1-3)GlcNAc(b1-2)Man(a1-6)]Man(b1-4)GlcNAc(b1-4)[Fuc(a1-6)]GlcNAc
# In short: as §1
# [8] = molecular target: Fuc(a1-2)Gal(b1-3)GlcNAc(b1-3)Gal(b1-4)Glc
# In short: as §1
# [9] = molecular target: Fuc(a1-2)Gal(b1-3)GlcNAc(b1-3)GalNAc
# In short: as §1
# [10] = molecular target: Fuc(a1-2)Gal(b1-3)GlcNAc(b1-3)[Fuc(a1-2)Gal(b1-3)GlcNAc(b1-6)]GalNAc
# In short: as §1
# [11] = molecular target: Fuc(a1-2)Gal(b1-3)GlcNAc(b1-3)[Gal(b1-4)GlcNAc(b1-6)]Gal(b1-4)Glc
# In short: as §1
# [12] = molecular target: Fuc(a1-2)Gal(b1-3)GlcNAc(b1-3)[Neu5Ac(a2-6)Gal(b1-4)GlcNAc(b1-6)]Gal(b1-4)Glc
# In short: as §1
# [13] = molecular target: Fuc(a1-2)Gal(b1-3)GlcNAc6S
# In short: as §1
# [14] = molecular target: Fuc(a1-2)Gal(b1-3)[Fuc(a1-4)]GlcNAc
# In short: as §1
# [15] = molecular target: Fuc(a1-2)Gal(b1-3)[Fuc(a1-4)]GlcNAc(b1-2)Man(a1-3)[Fuc(a1-2)Gal(b1-3)[Fuc(a1-4)]GlcNAc(b1-2)Man(a1-3)]Man(b1-4)GlcNAc(b1-4)GlcNAc
# In short: as §1
# [16] = molecular target: Fuc(a1-2)Gal(b1-3)[Fuc(a1-4)]GlcNAc(b1-2)Man(a1-3)[Fuc(a1-2)Gal(b1-3)[Fuc(a1-4)]GlcNAc(b1-2)Man(a1-6)]Man(b1-4)GlcNAc(b1-4)[Fuc(a1-6)]GlcNAc(b1-4)[Fuc(a1-6)]GlcNAc
# In short: as §1
# [17] = molecular target: Fuc(a1-2)Gal(b1-3)[Fuc(a1-4)]GlcNAc(b1-3)[Fuc(a1-3)[Gal(b1-4)]GlcNAc(b1-6)]Gal(b1-4)Glc
# In short: as §1
# [18] = molecular target: Fuc(a1-2)Gal(b1-3)[Fuc(a1-4)]GlcNAc(b1-3)[Gal(b1-4)GlcNAc(b1-6)]Gal(b1-4)Glc
# In short: as §1
# Fuc(a1-2)Gal(b1-4)Glc = molecular target: Fuc(a1-2)Gal(b1-4)Glc
# In short: as §1
# Fuc(a1-2)Gal(b1-4)Glc6S = molecular target: Fuc(a1-2)Gal(b1-4)Glc6S
# In short: as §1
# Fuc(a1-2)Gal(b1-4)GlcNAc = molecular target: Fuc(a1-2)Gal(b1-4)GlcNAc
# In short: as §1
# [19] = molecular target: Fuc(a1-2)Gal(b1-4)GlcNAc(b1-2)Man
# In short: as §1
# [20] = molecular target: Fuc(a1-2)Gal(b1-4)GlcNAc(b1-2)Man(a1-3)[Fuc(a1-2)Gal(b1-4)GlcNAc(b1-2)Man(a1-6)]Man(b1-4)GlcNAc(b1-4)GlcNAc
# In short: as §1
# [21] = molecular target: Fuc(a1-2)Gal(b1-4)GlcNAc(b1-2)Man(a1-3)[Fuc(a1-2)Gal(b1-4)GlcNAc(b1-2)Man(a1-6)]Man(b1-4)GlcNAc(b1-4)[Fuc(a1-6)]GlcNAc
# In short: as §1
# [22] = molecular target: Fuc(a1-2)Gal(b1-4)GlcNAc(b1-2)[Fuc(a1-2)Gal(b1-4)GlcNAc(b1-4)]Man(a1-3)[Fuc(a1-2)Gal(b1-4)GlcNAc(b1-2)Man(a1-6)]Man(b1-4)GlcNAc(b1-4)GlcNAc
# In short: as §1
# [23] = molecular target: Fuc(a1-2)Gal(b1-4)GlcNAc(b1-3)Gal(b1-4)GlcNAc
# In short: as §1
# [24] = molecular target: Fuc(a1-2)Gal(b1-4)GlcNAc(b1-3)Gal(b1-4)GlcNAc(b1-2)Man(a1-3)[Fuc(a1-2)Gal(b1-4)GlcNAc(b1-3)Gal(b1-4)GlcNAc(b1-2)Man(a1-6)]Man(b1-4)GlcNAc(b1-4)GlcNAc
# In short: as §1
# [25] = molecular target: Fuc(a1-2)Gal(b1-4)GlcNAc(b1-3)Gal(b1-4)GlcNAc(b1-3)Gal(b1-4)GlcNAc
# In short: as §1
# [26] = molecular target: Fuc(a1-2)Gal(b1-4)GlcNAc(b1-3)GalNAc
# In short: as §1
# [27] = molecular target: Fuc(a1-2)Gal(b1-4)GlcNAc(b1-3)[Fuc(a1-2)Gal(b1-4)GlcNAc(b1-6)]GalNAc
# In short: as §1
# [28] = molecular target: Fuc(a1-2)Gal(b1-4)GlcNAc(b1-3)[Fuc(a1-3)[Gal(b1-4)]GlcNAc(b1-6)]Gal(b1-4)Glc
# In short: as §1
# [29] = molecular target: Fuc(a1-2)Gal(b1-4)GlcNAc(b1-6)GalNAc
# In short: as §1
# [30] = molecular target: Fuc(a1-2)Gal(b1-4)GlcNAc6S
# In short: as §1
# [31] = molecular target: Fuc(a1-2)Gal(b1-4)[Fuc(a1-3)]GlcNAc
# In short: as §1
# [32] = molecular target: Fuc(a1-2)Gal(b1-4)[Fuc(a1-3)]GlcNAc(b1-2)Man(a1-3)[Fuc(a1-2)Gal(b1-4)[Fuc(a1-3)]GlcNAc(b1-2)Man(a1-6)]Man(b1-4)GlcNAc(b1-4)[Fuc(a1-6)]GlcNAc
# In short: as §1
# [33] = molecular target: Fuc(a1-2)Gal(b1-4)[Fuc(a1-3)]GlcNAc(b1-2)[Fuc(a1-2)Gal(b1-4)[Fuc(a1-3)]GlcNAc(b1-4)]Man(a1-3)[Fuc(a1-2)Gal(b1-4)[Fuc(a1-3)]GlcNAc(b1-2)Man(a1-6)]Man(b1-4)GlcNAc(b1-4)GlcNAc
# In short: as §1
# [34] = molecular target: Fuc(a1-2)Gal(b1-4)[Fuc(a1-3)]GlcNAc(b1-3)Gal(b1-4)[Fuc(a1-3)]GlcNAc
# In short: as §1
# [35] = molecular target: Fuc(a1-2)Gal(b1-4)[Fuc(a1-3)]GlcNAc(b1-3)Gal(b1-4)[Fuc(a1-3)]GlcNAc(b1-3)Gal(b1-4)[Fuc(a1-3)]GlcNAc
# In short: as §1
# [36] = molecular target: Fuc(a1-2)Gal(b1-4)[Fuc(a1-3)]GlcNAc(b1-3)GalNAc
# In short: as §1
# [37] = molecular target: Fuc(a1-2)Gal(b1-4)[Fuc(a1-3)]GlcNAc(b1-3)[Neu5Ac(a2-6)Gal(b1-4)GlcNAc(b1-6)]Gal(b1-4)Glc
# In short: as §1
# [38] = molecular target: Fuc(a1-2)Gal3S(b1-4)GlcNAc
# In short: as §1
# [39] = molecular target: Fuc(a1-2)Gal6S(b1-3)GlcNAc
# In short: as §1
binder,measurement,setting,value
B1,glycan array binding signal (z-score),Fuc(a1-2)Gal,-0.191
same,glycan array binding signal (z-score),Fuc(a1-2)Gal(b1-3)GalNAc,-0.307
same,glycan array binding signal (z-score),[1],-0.339
same,glycan array binding signal (z-score),[2],0.427
same,glycan array binding signal (z-score),[3],-0.141
same,glycan array binding signal (z-score),[4],-0.267
same,glycan array binding signal (z-score),[5],-0.019
same,glycan array binding signal (z-score),Fuc(a1-2)Gal(b1-3)GlcNAc,-0.251
same,glycan array binding signal (z-score),[6],0.779
same,glycan array binding signal (z-score),[7],-0.54
same,glycan array binding signal (z-score),[8],-0.28
same,glycan array binding signal (z-score),[9],-0.414
same,glycan array binding signal (z-score),[10],-0.583
same,glycan array binding signal (z-score),[11],-0.533
same,glycan array binding signal (z-score),[12],-0.405
same,glycan array binding signal (z-score),[13],0.155
same,glycan array binding signal (z-score),[14],-0.523
same,glycan array binding signal (z-score),[15],0.234
same,glycan array binding signal (z-score),[16],-0.195
same,glycan array binding signal (z-score),[17],-0.621
same,glycan array binding signal (z-score),[18],0.313
same,glycan array binding signal (z-score),Fuc(a1-2)Gal(b1-4)Glc,-0.301
same,glycan array binding signal (z-score),Fuc(a1-2)Gal(b1-4)Glc6S,-0.228
same,glycan array binding signal (z-score),Fuc(a1-2)Gal(b1-4)GlcNAc,-0.41
same,glycan array binding signal (z-score),[19],0.09
same,glycan array binding signal (z-score),[20],0.134
same,glycan array binding signal (z-score),[21],0.307
same,glycan array binding signal (z-score),[22],0.752
same,glycan array binding signal (z-score),[23],-0.02
same,glycan array binding signal (z-score),[24],0.158
same,glycan array binding signal (z-score),[25],-0.098
same,glycan array binding signal (z-score),[26],-0.245
same,glycan array binding signal (z-score),[27],-0.059
same,glycan array binding signal (z-score),[28],-0.083
same,glycan array binding signal (z-score),[29],1.5
same,glycan array binding signal (z-score),[30],-0.53
same,glycan array binding signal (z-score),[31],-0.27
same,glycan array binding signal (z-score),[32],0.701
same,glycan array binding signal (z-score),[33],0.407
same,glycan array binding signal (z-score),[34],-0.113
same,glycan array binding signal (z-score),[35],-0.08
same,glycan array binding signal (z-score),[36],-0.577
same,glycan array binding signal (z-score),[37],-0.265
same,glycan array binding signal (z-score),[38],-0.223
same,glycan array binding signal (z-score),[39],-0.167
